# Laboratory results reported in the RNAGym collection of RNA variant scans (doi:10.7554/elife.90254).
# The source gives no read counts; variants with many changes may rest on few reads.
# B1: OR4K15 (parent)
# chain: GUUAACGGUCAUAGGCCAUGGAAACUAGGAGCACCAUUUCGCUGCCAGUGAAGAAAUGAACAAAGAAAAUCUGGGCCAGGCAGGCAUCAAAAGAAAUAGUCUUGCGCUCAACCAGAAAGUCUGUAAUCAUUUUAAGGGUA
# Variants of: B1
# Assay: self-cleavage, relative activity (ratio to wild type); higher = more cleavage; in vitro, sequencing; the parent is a self-cleaving ribozyme
row,Variant,self-cleavage
1,GUUAACGGUCAUAGGCCAUGGAAACUAGGAGCACCAUUUCGCUGCCAGUGAAGAAAUGAACAAGGAAAAUCUGGGCCAGGCAGGCAUCAGGAGAAAUAGUCUUGCGCUCAACCAGAAAGUCUGUAAUCAUUUUAAGGGUA [A64G A90G A91G],1.19
2,GUUAACGGUCAUAGGCCAUGGAAACUAGGAGCACCAUUUCGCUGCCAGUGAAGAAAUGAACAAGGAAAAUCUGGGCCAGGCAGGCAUCAAAAGAAACAGUCCCGCGCUCAACCAGAAAGUCUGUAAUCAUUUUAAGGGUA [A64G U97C U102C U103C],0.14
3,GUUAACGGUCAUAGGCCAUGGAAACUAGGAGCACCAUUUCGCUGCCAGUGAAGAAAUGAACAAGGAAAAUCCGGGCCAGGCAGGCAUCAAAAGAAAUAGUCUUGCGCUCAACCAGAAAGUCUGUAACCAUUUUAAGGGUA [A64G U72C U127C],0.14
4,GUUAACGGUCAUAGGCCAUGGAAACUAGGAGCACCAUUUCGCUGCCAGUGAAGAAAUGAACAAGGAAAAUCUGGGCCUGGCGGGCAUCAAAGGAAAUAGUCUUGCGCUCAACCAGAAAGUCUGUAAUCAUUUUAAGGGUA [A64G A78U A82G A92G],0.12
5,GUUAACGGUCAUAGGCCAUGGAAACUAGGAGCACCAUUUCGCUGCCAGUGAAGAAAUGAACAAGGAAAAUCUGGGCCAGGCAGGCAUCAAAAGAAAUAGUCUUGCGCUCAACCAGAAAGUCUGUAAUCAUCUUAAGGGUG [A64G U131C A140G],0.91
6,GUUAACGGUCAUAGGCCAUGGAAACUAGGAGCACCAUUUCGCUGCCAGUGAAGAAAUGAACAAUGAAAAUCUGGGCCAGGCGGGCAUCAAAAGAGAUAGUCUUGCGCUCAACCAGAAAGUCUGUAAUCAUUUUAAGGGUA [A64U A82G A95G],0.4
7,GUUAACGGUCAUAGGCCAUGGAAACUAGGAGCACCAUUUCGCUGCCAGUGAAGAAAUGAACAAGGAAAGUCUGGGCCAGGCAGGCAUCAAAAGAAAUUGUCUUGCGCUCAACCAGAAAGUCUGUAACCAUUUUAAGGGUA [A64G A69G A98U U127C],1.47
8,GUUAACGGUCAUAGGCCAUGGAAACUAGGAGCACCAUUUCGCUGCCAGUGAAGAAAUGAACAAGGAAAAUCUGGGCCAGGCAGGCAUCAAAAGAAAUAGUCUUGCGCUCAACCUGAAAGUCAGUAAUCAUUUUAAGGUUA [A64G A114U U122A G138U],0.01
9,GUUAACGGUCAUAGGCCAUGGAAACUAGGAGCACCAUUUCGCUGCCAGUGAAGAAAUGAACAAGGAAAAUCUGGGCCAGGCAGGCAUCAAAAGAAAUAGUCAUGCGCUCAACCAGAAAGCCUGUAAUCAUUUUAAGGGUA [A64G U102A U120C],1.06
10,GUUAACGGUCAUAGGCCAUGGAAACUAGGAGCACCAUUUCGCUGCCAGUGAAGAAAUGAACAAUGAAAAUCUGGGCCAGGCAGGCAUCGAAAGAAAUAGUCUUGCGCUCAACCAGAAAGACUGUAAUCAUUUUAAGGGUA [A64U A89G U120A],1.67
11,GUUAACGGUCAUAGGCCAUGGAAACUAGGAGCACCAUUUCGCUGCCAGUGAAGAAAUGAACAAGGAAAAUCUGGGCCAGGCAGGCACCAAAAGGAAUAGUCUUGCGCUCAACCAGAAAGUCUGUAAUCAUUUUAAGGGUA [A64G U87C A94G],1.03
12,GUUAACGGUCAUAGGCCAUGGAAACUAGGAGCACCAUUUCGCUGCCAGUGAAGAAAUGAACAAGGAAAAUCUGGGCCGGGCAGGCUUCAAAAGAAAUAGUCUUGCGCUCAACCAGUAAGUCUGUAAUCAUUCUAAGGGUA [A64G A78G A86U A116U U132C],0.06
13,GUUAACGGUCAUAGGCCAUGGAAACUAGGAGCACCAUUUCGCUGCCAGUGAAGAAAUGAACAAGGAAAAUCUGGGCCAGGCGGGCAUCAAAAGAAAUAGUCUUGCGCUCAACCAGAAAGUCUGUAAUCAUUUUAAGGUUA [A64G A82G G138U],0.68
14,GUUAACGGUCAUAGGCCAUGGAAACUAGGAGCACCAUUUCGCUGCCAGUGAAGAAAUGAACAAGGAAAAUCUGGGCCAGGCAGGCAUCAGAAGAAGUAGUCUUGCGCUCAACCAGAAAGUCUGUAAUCAUUUUAGGGGUA [A64G A90G A96G A135G],1.06
15,GUUAACGGUCAUAGGCCAUGGAAACUAGGAGCACCAUUUCGCUGCCAGUGAAGAAAUGAACAAGGAAAAUCUGGGCCAGGCAGGCAUCAAAAGAAAUAGUCUUGCGCUCAGCCAGAAAGUCUGUACUCAUUUUAAAGGUA [A64G A111G A126C G136A],0.01
16,GUUAACGGUCAUAGGCCAUGGAAACUAGGAGCACCAUUUCGCUGCCAGUGAAGAAAUGAACAAUGAGAAUCUGGGCCAGGCAGGCAUCAAAAGAAAUGGUCUUGCGCUCAACCAGAAUGUCUGCAAUCAUUUUAAGGGUA [A64U A67G A98G A118U U124C],0.09
17,GUUAACGGUCAUAGGCCAUGGAAACUAGGAGCACCAUUUCGCUGCCAGUGAAGAAAUGAACAAGGAAAGUCUGGGCCAGGCAGGCAUCAAAAGAAAUAGUCUUGCGCUCAACCAGAAAGUCUGUAAUCACUUUAAGGGUA [A64G A69G U130C],0.36
18,GUUAACGGUCAUAGGCCAUGGAAACUAGGAGCACCAUUUCGCUGCCAGUGAAGAAAUGAACAAGGAAAAUCUGGGCCAGGCAGGCAUCAAUAGAAAUAGUCUUGCGCUCAACCAGAAGGUCUGUAAUCAUUUUAAGGGUA [A64G A91U A118G],1.54
19,GUUAACGGUCAUAGGCCAUGGAAACUAGGAGCACCAUUUCGCUGCCAGUGAAGAAAUGAACAAGGAAAAUCUGAGCCAGGCAGGCAUCAAAAGAAAUAGUCUUGCGCUCAGCCAGAAAGUCUGUAAUCAUUUUAAGGGUA [A64G G74A A111G],0.02
20,GUUAACGGUCAUAGGCCAUGGAAACUAGGAGCACCAUUUCGCUGCCAGUGAAGAAAUGAACAAGGAAAAUCUGGGCUUGGCAGGCAUCAAAAGAAAUAGUCUUGCGCUCAACCAGAAAGUCUGUAAUCAUUUUAAGGGUA [A64G C77U A78U],1.58
